According to PubChem BioAssay AID1948 (National Center for Advancing Translational Sciences (NCATS), 2009):
About 20 (0.02%) of roughly 110,000 compounds were called active. This list was built around the results that the source calls inconclusive (neither active nor inactive); the mix of calls is not that of the screen. Calls come from the whole dose curve; as a rule, active = well fitted activation curve with a large enough effect; inconclusive = small, poorly fitted or top-dose-only effect; inactive = no such curve, though single readings can be large or run the other way. Potencies of inconclusive entries are doubtful fits and often do not repeat.

experiment: qHTS Assay for Compounds that Induce Erasure of Genomic Imprints; settings: mouse ES Peg3-LacZ reporter, beta-gal luminescence, 40 h; activity change, positive = activation: at 10.9 µM (top of the series) unless noted;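 for activity change, positive = activation: 0% = negative control wells on the plate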
Summary of the method: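 Imprint erasure is scored as LacZ activity from the silenced maternal Peg3 allele in feeder-free female ES cells cultured 40 h with LIF. Luminescence is normalized to in-plate negative controls and fitted to the Hill equation.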
Potency is the fitted concentration of half-maximal effect; tags give direction and shape of the fitted curve.

SMILES | activity change, positive = activation | Potency
CCc1ccc(-c2cn3c(n2)sc2cc(C(=O)NCCC4=CCCCC4)ccc23)cc1 | inconclusive: 91.5% [activator] | –
COc1cccc(NC(=O)c2ccc(CN3CCOCC3)cc2)c1 | – | inactive
COc1cccc(NC(=O)c2nnn(Cc3cccc(C(F)(F)F)c3)c2N)c1 | – | inactive
CCOC(=O)c1ccc(NC(=O)c2nsc3ccccc23)cc1 | – | inactive
CCC1CCCCN1CCCNC(=O)Cn1nc(-c2ccccc2)ccc1=O (stereo not given) | – | inconclusive: 25.1 µM [activator, single point]
Cc1cccn2c(=O)c3cc(C#N)c(=O)n(Cc4cccnc4)c3nc12 | – | inactive
NC(=O)Cn1c(=O)n(-c2ccc(F)c(Cl)c2)c(=O)c2sc3ccccc3c21 | inconclusive: 61.9% [activator] | –
Cc1ccc(-c2nc(C(=O)Nc3cccc(C#N)c3)c3n2CCCCC3)cc1 | inconclusive: 32.2% [activator] | –
C=CC(C1=CC(=O)C(OC)=CC1=O)c1ccccc1 (stereo not given) | – | inactive
COc1cc2c(C(=O)NCc3ccccn3)cn(CC(C)C)c(=O)c2cc1OC | – | inactive
COCCNc1ncnc2c1cnn2Cc1ccc(Cl)cc1 | – | inconclusive: 31.6 µM [activator, single point]
COc1ccc(NCc2cc3cc4c(cc3n(CC(=O)Nc3ccccc3)c2=O)OCO4)cc1 | – | inactive
CCOC(=O)N1CCN(C(=O)CN(c2ccc3c(c2)OCO3)S(C)(=O)=O)CC1 | – | inconclusive: 6.31 µM [activator, single point]
COCCn1c(=NC(=O)c2ccc3c(c2)OCCO3)sc2cc(NC(C)=O)ccc21 | inconclusive: 87.5% [activator] | –
Cc1ccc(C(=O)/C=C/c2cn(CC(O)CN3CCCCCC3)c3ccccc23)cc1 (stereo not given) | inconclusive: 48.4% [activator] | –
COc1cccc(N2CC(NC(=O)Cc3cccs3)CC2=O)c1 (stereo not given) | inconclusive: 34.1% [activator] | –
CCN(CC)S(=O)(=O)c1ccc2c(c1)nc(SCc1nc3ccsc3c(=O)[nH]1)n2CC | – | inactive
COc1ccc(CCNC(=O)Cn2cc(C(=O)c3ccccc3)c(=O)c3ccc(C)nc32)cc1OC | inconclusive: 76.5% [activator] | –
CCOC(=O)c1c(S(=O)(=O)N2CCC(C(=O)Nc3ccccc3OC)CC2)c(C)n(CC)c1C | inconclusive: 43.7% [activator] | –
COc1cc(CN(C(=O)c2ccco2)c2ccc(C)cc2)ccc1O | – | inactive
O=C1N2CCSC2=NC1(Nc1nccs1)C(F)(F)F (stereo not given) | inconclusive: 32% [activator] [at 60.7 µM] | –
COc1ccc(F)cc1S(=O)(=O)NCC(c1ccco1)S(=O)(=O)c1ccc(F)cc1 (stereo not given) | inconclusive: 77.3% [activator] | –
CCOc1ccc(-c2nnn(CC(=O)Nc3cc(OC)ccc3OC)n2)cc1OCC | – | inactive
COc1cccc(CNC(=O)c2oc3c(c2C)-c2nn(Cc4cccc(Cl)c4)cc2CC3)c1 | inconclusive: 37.1% [activator] | –
C[C@@H]1/C(=N/O)CC2C[C@@H]1C2(C)C | – | inconclusive: 1.26 µM [activator, single point]

SMILES | activity change, positive = activation | Potency
COc1ccccc1CNc1ccnc(-c2ccccc2CN(C)C)n1 | – | inconclusive: 3.98 µM [activator, single point]
Cc1cc(C)n(-c2ccc(OCC(=O)O)nn2)n1 | – | inconclusive: 7.94 µM [activator, partial curve]
CCC#CCOCC(=O)Nc1ccccc1 | – | inactive
CN(Cc1ccco1)c1ccnc(-c2ccoc2)n1 | – | inconclusive: 0.398 µM [activator, partial curve]
CC(=O)OC/C=C(\C)CCC=C(C)C | – | inconclusive: 12.6 µM [activator, single point]
CC(C)Sc1ncc(Cl)c(C(=O)Nc2ccc(S(=O)(=O)N3CCCCC3C)cc2)n1 (stereo not given) | – | inactive
COc1ccc(OC)c(CNC(=O)c2cccc(NC(=O)N3CCSc4ncccc43)c2)c1 | – | inactive
CCc1ccc(N2C(=O)CSC23C(=O)N(Cc2cccc(F)c2)c2ccccc23)cc1 (stereo not given) | inconclusive: 41% [activator] | –
C[C@@H](C(=O)NCc1ccccc1)[C@H]1C[C@]1(C)[C@H](NC(=O)OCc1ccccc1)c1ccccc1 | – | inactive
COc1ccc(-n2nc(C(=O)N3CCN(c4cccc(C)c4)C(C)C3)c3c4ccccc4n(C)c3c2=O)cc1 (stereo not given) | inconclusive: 47.5% [activator] | –
Cc1ccc(NC(=O)Cn2cc(S(=O)(=O)N3CCCC3)c(S(=O)(=O)N3CCCC3)c2)c(C)c1 | inconclusive: 54.9% [activator] | –
CCOc1cc2sc(N3CCC(C(=O)Nc4ccc(C(C)C)cc4)CC3)nc2cc1Br | inconclusive: 42.8% [activator] | –
Oc1ccc(CN2CCN(Cc3ccccc3)CC2)c2cccnc12 | – | inactive
CCOC(=O)c1ccc(Nc2nc(N)c3cc(OC)c(OC)cc3n2)cc1 | inconclusive: 31.3% [activator] | –
Cc1ccc2[nH]c(CSc3nnc(NC(=O)COc4ccccc4C)s3)cc(=O)c2c1 | inconclusive: 62.9% [activator] | –
CN(C)Cc1ccccc1-c1cncnc1Nc1ccncc1 | – | inconclusive: 3.16 µM [activator, partial curve]
Cc1ccc(NC(=O)c2c(C)oc3ccc(O)c(CN4CCCCC4)c23)cc1 | – | inactive
CC1(C)CC2/C(CO)=C/C=C/[C@](C)(O)CC[C@]21O (stereo not given in full) | – | inconclusive: 0.794 µM [activator, single point]
COc1ccc(N2CC(NC(=O)COc3ccc4ccccc4c3)CC2=O)cc1 (stereo not given) | inconclusive: 34.2% [activator] | –
CCc1cccc(C)c1NC(=O)C1CCN(S(=O)(=O)Cc2ccccc2)CC1 | inconclusive: 35.1% [activator] | –
O=C1CCC(=O)N1CCOP1(=O)COc2ccccc2OC1 | – | inconclusive: 20 µM [activator, partial curve]
CN1C(=O)C2C=CC1C1C(=O)N(c3ccccc3)C(=O)C21 (stereo not given) | – | inactive
COCCNc1nc(-c2ccccc2Cl)nc2ccccc12 | – | inconclusive: 2 µM [activator, partial curve]
COc1ccc(CCN2C(=O)c3cccnc3C2=O)cc1OC | – | inactive
Cc1ccc(N(CC(=O)N2CCN(c3ccc(Cl)cc3)CC2)S(=O)(=O)c2c(C)noc2C)cc1 | – | inactive

SMILES | activity change, positive = activation | Potency
CC(C)c1ccc(NS(=O)(=O)c2ccc3[nH]cc(C(=O)N4CCCC4)c(=O)c3c2)cc1 | inconclusive: 37.9% [activator] | –
COC(=O)c1ccc(OC)c(CN2CCCN(Cc3ccc(C)cc3)S2(=O)=O)c1 | – | inactive
CCCCn1c(NC(=O)c2ccc(F)cc2)c(C#N)c2nc3ccccc3nc21 | – | inactive
CC(=O)NCCOc1nc(N(C)C)nc(N(C)C)n1 | – | inconclusive: 5.01 µM [activator, single point]
Cc1nc2nc(SCC(=O)NCc3ccccc3)nn2c(C)c1Cc1ccccc1Cl | – | inactive
O=C(N1CCCCCC1)N1CCN(C(=O)N2CCOCC2)CC1 | – | inconclusive: 6.31 µM [activator, single point]
CCOc1ccc(NCc2cccn2-c2nnc(N3CCC(C(=O)NCCOC)CC3)s2)cc1 | inconclusive: 39.3% [activator] | –
CSc1ncnc2c1ncn2C1OC(CO)C(O)C1O (stereo not given) | – | inconclusive: 0.199 µM [activator, partial curve]
COC(=O)c1cc(-c2ccc(OC)c(OC)c2)on1 | – | inactive
COC(=O)[C@@H]1[C@@H]2C[C@H]3c4[nH]c5ccccc5c4CCN3C[C@@H]2CC[C@@H]1O | – | inconclusive: 6.31 µM [activator, single point]
COc1ccc(CCC(=O)NCCc2csc(-c3ccc(C(F)(F)F)cc3)n2)cc1 | inconclusive: 35.6% [activator] | –
COc1ccc(-c2cnn3c(C)cc(C)nc23)cc1OC | – | inactive
COC(=O)c1ccc(NC(=O)CSc2ncc3c(n2)-c2cc(Cl)ccc2N(Cc2ccccc2)S3(=O)=O)cc1 | inconclusive: 72.6% [activator] | –
COc1ccc(-c2noc(CCC(=O)Nc3cc(Cl)c(OC)cc3OC)n2)cc1 | – | inactive
COc1cc(C)c2c(c1C=O)Oc1c(c(C)c(O)c3c1C(O)OC3=O)OC2=O (stereo not given) | – | inconclusive: 20 µM [activator, single point]
Cc1cccc(NC(=O)C(=O)NCC(c2ccc3c(c2)OCO3)N2CCN(C)CC2)c1C (stereo not given) | inconclusive: 30.6% [activator] | –
Cc1csc(NC(=O)CSc2nc(C)cs2)n1 | – | inconclusive: 6.31 µM [activator, single point]
O=C(CNS(=O)(=O)c1cccs1)N1CCN(c2cccc(C(F)(F)F)c2)CC1 | inconclusive: 66.2% [activator] | –
O=C(Cn1ncc2c3ccccc3n(Cc3cccc(Cl)c3)c2c1=O)NC1CCCCCC1 | inconclusive: 43.8% [activator] | –
O=C(c1cc(-c2cccnc2)nc2ccc(Br)cc12)N1CCC2(CC1)OCCO2 | – | inconclusive: 0.126 µM [activator, full curve, poor fit]
CCN(CC)C(=O)CN1CCN(c2ncccn2)CC1 | – | inconclusive: 0.1 µM [activator, full curve, poor fit]
COc1ccc(OC)c(CCNc2nc3ccccc3c3nc(-c4cccnc4)nn23)c1 | inconclusive: 92.4% [activator] | –
O=C(Nc1ccc2oc(-c3ccccc3F)nc2c1)c1cncc(Br)c1 | – | inconclusive: 6.31 µM [activator, single point]
CSc1nnc2c3cc(F)ccc3n(Cc3ccccc3)c2n1 | – | inactive
COc1ccccc1CNC(=O)C1CCC(CNS(=O)(=O)c2ccc3c(c2)CCCC(=O)N3)CC1 (stereo not given) | inconclusive: 40.6% [activator] | –
